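In this assay, cells in 96-well plates receive the compound at five concentrations for 48 hours. Endpoints are linearly interpolated between the surrounding concentrations. Abbreviation: GI50, concentration required for 50% inhibition of growth. TGI marks complete inhibition of growth.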
Test system: NCI-H322M lung
Assay: NCI anticancer screen, dose series, 48 h

Row | SMILES | TGI [µM] | GI50 [µM]
1 | O=C1NCC2=C1CCC1c3ccccc3CCN21 (stereo not given) | > 100 | 
2 | CCCCCCCCCCCCCCCc1ccc(C(=O)C[n+]2ccccc2)cc1 | 3.93 | 1.07
3 | C=C1CCC2C3(C)COC(c4cccc(Cl)c4)OC3CCC2(C)C1/C=C/C1=CCOC1=O (stereo not given) | > 100 | > 100
4 | ClCc1nc2cc(Cl)ccc2o1 | 27.3 | 
5 | O=C(Nc1ccc(-n2cc(-c3ccncc3)c(-c3ccc(O)c(Cl)c3)n2)cc1)c1ccc(Cl)c(Cl)c1 | > 32.5 | > 32.5
6 | CCOC(=O)c1c(-c2ccccc2)[nH]c2ccccc2c1=O | > 100 | 
7 | O=C1/C(=C\c2ccccc2)CN(C(=O)c2ccccc2F)C/C1=C\c1ccccc1 | 25.6 | 11.9
8 | COC(=O)Oc1nn(C(=O)OC)c(=O)c2ccccc12 (tested in a mixture with another compound) | > 100 | 
9 | O=c1[nH]cnc2c1nnn2C1C=C(CO)C(O)C1O (stereo not given) | > 100 | 
10 | O=C1C(c2c(O)n(-c3ccccc3)c3ccccc23)=Nc2ccccc21 | > 100 | 
11 | OCC1OC(NC(=S)NCSCCC(F)(F)C(F)(F)C(F)(F)C(F)(F)C(F)(F)C(F)(F)F)C(O)C(O)C1O (stereo not given) | > 100 | 
12 | O=C(CN1c2ccccc2Sc2ccccc21)n1cnc2ccccc21 | > 100 | 
13 | CCN1CCC(O)(c2ccccc2)C(C(=O)c2ccccc2)C1 (stereo not given) | > 100 | 
14 | Cc1c(/C=N\NC(=S)N(C)CCN(C)C(=S)N/N=C\c2c(C)n(C)n(-c3ccccc3)c2=O)c(=O)n(-c2ccccc2)n1C | > 100 | 
15 | CC1=NN(c2ccccc2Cl)C2(C1)SCC(=O)N2c1nc2ccccc2s1 (stereo not given) | > 100 | 
16 | CNC1=C(C)C(=O)C2=C(C1=O)C(COC(N)=O)C1(OC)C3NC3CN21 (stereo not given) | 2.31 | 
